Experimental data taken from the supplement of paper PMC3334620.
The full ranking holds about 33,000 sequences; the median of “E-score (-0.5 to 0.5)” is about -0.036, and the highest 2% start at about 0.37. Some of the results follow.

Molecular target: T1, Yer064c (UniProt P40041)
T1 sequence: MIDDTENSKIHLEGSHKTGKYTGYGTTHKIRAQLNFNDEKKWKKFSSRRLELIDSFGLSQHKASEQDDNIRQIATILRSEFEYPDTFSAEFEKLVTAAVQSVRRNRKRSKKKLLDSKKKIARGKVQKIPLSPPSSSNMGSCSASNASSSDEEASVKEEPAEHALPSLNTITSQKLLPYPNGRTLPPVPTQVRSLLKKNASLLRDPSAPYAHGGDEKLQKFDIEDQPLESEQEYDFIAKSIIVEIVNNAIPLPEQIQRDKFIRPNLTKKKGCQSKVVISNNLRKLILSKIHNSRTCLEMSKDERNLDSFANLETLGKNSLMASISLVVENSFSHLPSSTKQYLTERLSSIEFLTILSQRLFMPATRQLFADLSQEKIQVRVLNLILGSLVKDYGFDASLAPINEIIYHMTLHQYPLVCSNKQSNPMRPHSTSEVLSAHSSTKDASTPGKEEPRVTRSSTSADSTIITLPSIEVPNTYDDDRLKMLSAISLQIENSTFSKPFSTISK
Assay: PBM E-score (8-mer binding enrichment) (E-score (-0.5 to 0.5)); higher = stronger / more preferred TF binding; most listed sequences are background and not binding sites
Conditions: protein concentration: 200 nM; construct: GST-full length
Summary of the method: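 Each ungapped eight-base word and its reverse complement, pooled, received an E-score from the Universal PBM Analysis Suite. Underlying scans, normalised with masliner, recorded fluorescent anti-GST bound to GST-tagged yeast transcription factors. These were applied at about 100-200 nM to universal all-10-mer Agilent arrays double-stranded by primer extension.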

| Sequence | PBM E-score |
| --- | --- |
| ACTCGGAT | 0.0489 |
| GCACAACA | -0.0631 |
| TCGCTCCA | -0.0823 |
| AAGCTATG | -0.0849 |
| AGGACGCA | -0.0338 |
| CCCCGCGG | -0.191 |
| GGTCGCTA | -0.197 |
| ACCACTGC | -0.0646 |
| GTAGATAA | 0.0955 |
| ATATCAGA | -0.0448 |
| TCCTCCGA | -0.0688 |
| TCGCCGAA | 0.0704 |
| CGTGTTTC | -0.179 |
| TAAGTCCA | 0.109 |
| ACACAAGT | 0.0362 |
| GACGCCCC | -0.35 |
| ATTCTCTA | 0.0286 |
| CCAGATGC | 0.0961 |
| CCAAAGAC | 0.134 |
| ATAACCAG | 0.123 |
| ATCGCCAG | 0.0156 |
| AATGAGAT | 0.0439 |
| AAGCGTAG | -0.094 |
| GCTAGACC | -0.218 |
| ATGCAGGA | -0.0508 |

| Sequence | PBM E-score |
| --- | --- |
| CATAGAAA | -0.00929 |
| GTTACGTA | -0.156 |
| CAGGCATG | -0.133 |
| AACGATGT | 0.0466 |
| AGCTCCCT | -0.212 |
| GCTCTGGA | 0.00623 |
| AGCGATCC | -0.315 |
| CAGCGACG | 0.0254 |
| AGGAGACG | -0.273 |
| GCGGGATA | -0.207 |
| CGCAAGAC | -0.0139 |
| CCACACAG | -0.153 |
| ATACATAA | 0.136 |
| GCCATATA | -0.0988 |
| GGTAAATA | 0.00257 |
| CTTAAGTA | 0.141 |
| CCAATTCA | -0.0497 |
| AGCATGGC | -0.119 |
| CATGTGCA | -0.237 |
| AGTTACCA | -0.0239 |
| CCTGTACA | -0.188 |
| ACGGAGGG | -0.244 |
| TCAAATAA | 0.129 |
| ATTTCTCA | 0.146 |
| AGGGTATA | -0.179 |

| Sequence | PBM E-score |
| --- | --- |
| ATGGGTTC | 0.0311 |
| ACTGTAGA | 0.09 |
| CAGGTCGC | -0.181 |
| CGGGGTAC | -0.155 |
| CTCCTTTC | -0.0828 |
| CAGCGTAC | -0.124 |
| AAGCTTTA | -0.158 |
| ACACTTCC | -0.0311 |
| CCAAGGCA | -0.216 |
| ACCGTGTC | -0.0817 |
| GACCCAAC | -0.048 |
| CTCCGGCA | -0.0651 |
| GGGTCGAC | -0.0797 |
| AATGTCGC | -0.175 |
| ATCACTTG | 0.197 |
| GCGGGGGA | -0.205 |
| GGTCGCAA | -0.133 |
| CCATCACC | 0.0674 |
| ATATAGGA | 0.0351 |
| GCCTATCA | -0.147 |
| ATGTGATC | 0.0847 |
| CGTATAAA | 0.14 |
| CTACGCGC | 0.00965 |
| GCGATTGA | 0.145 |
| GCGGTGAC | 0.207 |

| Sequence | PBM E-score |
| --- | --- |
| TAAGGCCA | -0.227 |
| TCTGCGAA | 0.0185 |
| ACAGTTCT | 0.0197 |
| CGAGCAAG | -0.0519 |
| ACGTGTCA | 0.0212 |
| CAACGCCG | -0.154 |
| CCACAAGC | -0.237 |
| GACTCAGC | 0.457 |
| ACTCAGTA | 0.343 |
| AAGGCACC | -0.201 |
| CTACTCAA | 0.162 |
| CCGTGTAA | -0.0343 |
| CAGCTTTC | -0.126 |
| GCGGGGCA | -0.26 |
| AACAGAAG | 0.0362 |
| GACGACCC | -0.217 |
| CTGCTCTC | -0.136 |
| GCATCTAC | -0.0974 |
| CGCCGTAC | -0.113 |
| ACTCCGAG | 0.208 |
| GAGGGTAA | -0.142 |
| ACCTCGGG | 0.0699 |
| GTTTTATA | -0.0151 |
| ACGATTCT | 0.212 |
| ACTCAATG | 0.302 |

| Sequence | PBM E-score |
| --- | --- |
| GACAGATC | -0.104 |
| ACAAAACC | -0.058 |
| CATTTATC | 0.0854 |
| AACTCCCT | -0.0645 |
| AAGCGGAG | -0.207 |
| CGCGACAG | -0.0559 |
| CGCACAGA | -0.282 |
| CTCCGTAA | -0.0364 |
| CCCATCTC | -0.192 |
| TGAACTAA | 0.0662 |
| AATGTACC | 0.0415 |
| CCTACTCA | 0.0895 |
| CGTTTCCC | -0.0481 |
| AAGTTATC | -0.0451 |
| CTCGAGAG | 0.0646 |
| GGATAACC | -0.127 |
| AGAGGGCG | -0.24 |
| GACCTGAC | 0.172 |
| ACAGTGAA | 0.00077 |
| AAAGACAG | -0.0264 |
| CCCAGTAG | -0.0163 |
| GGCATAAA | -0.195 |
| GTAGGAGA | -0.0901 |
| GAGGCCCA | -0.219 |
| AGCCCCTA | -0.358 |

| Sequence | PBM E-score |
| --- | --- |
| GAGATCGC | -0.1 |
| ACGGTGAG | 0.103 |
| CCATGGTA | 0.00037 |
| CATCCTGA | 0.0636 |
| CCCCCAAA | -0.188 |
| CCTCTGAG | -0.112 |
| TACCGCAA | 0.183 |
| ACACGTTG | 0.0958 |
| ACATCCCC | -0.215 |
| AGAAACGA | 0.0587 |
| ATGCCCCG | -0.0936 |
| CCTAAAGA | 0.0245 |
| TGGAAACA | -0.107 |
| GAGATTCA | 0.238 |
| AGTGGCTA | 0.203 |
| ACGAACAC | 0.0888 |
| GTAATCGA | 0.0697 |
| CAATGACG | -0.047 |
| TATTATCA | 0.0515 |
| AGGCCTTA | -0.113 |
| ATGTAAGC | -0.0792 |
| TCTAATCA | 0.386 |
| CATGCTTA | 0.0408 |
| CTACGTAG | 0.104 |
| AAGCGTCT | -0.373 |

| Sequence | PBM E-score |
| --- | --- |
| GGATTTTA | -0.0301 |
| CACCGTAC | -0.0293 |
| AAATCCTG | 0.05 |
| CGGAACTC | 0.0164 |
| ACTATCAA | 0.216 |
| CCAGCCGA | -0.133 |
| ACAAGCGG | -0.238 |
| ATGAGAAC | -0.0445 |
| ATCATGAC | 0.369 |
| AATAGACC | -0.19 |
| ACCGTAAT | -0.0463 |
| GATGTCAC | -0.0347 |
| AAGATCTT | -0.036 |
| CTTTTTAA | 0.0374 |
| CGGCGTCA | -0.314 |
| CTCTGCAG | -0.00801 |
| CAACTATG | -0.0265 |
| CGATTTCA | 0.183 |
| CAGGACTA | 0.262 |
| CCCTTGAC | 0.0569 |
| CTCGTTTA | 0.079 |
| CGTTTCCA | -0.081 |
